According to PMC4336329 (PLoS ONE, 2015):
Out of some 310,000 compounds screened, about 14,000 (4.5%) showed an effect of 50% or more. The effect is printed as a negative number. The list shows a part of the results.

Molecular target: human ether-à-go-go-related gene (hERG) potassium channel (human, UniProt Q12809)
Assay: primary screen, population patch clamp on CHO cells stably expressing hERG
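Note: peak tail current of the secondary pulse compared with the same well before compound.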

Sequence of human ether-à-go-go-related gene (hERG) potassium channel (Q12809 whole entry, looked up): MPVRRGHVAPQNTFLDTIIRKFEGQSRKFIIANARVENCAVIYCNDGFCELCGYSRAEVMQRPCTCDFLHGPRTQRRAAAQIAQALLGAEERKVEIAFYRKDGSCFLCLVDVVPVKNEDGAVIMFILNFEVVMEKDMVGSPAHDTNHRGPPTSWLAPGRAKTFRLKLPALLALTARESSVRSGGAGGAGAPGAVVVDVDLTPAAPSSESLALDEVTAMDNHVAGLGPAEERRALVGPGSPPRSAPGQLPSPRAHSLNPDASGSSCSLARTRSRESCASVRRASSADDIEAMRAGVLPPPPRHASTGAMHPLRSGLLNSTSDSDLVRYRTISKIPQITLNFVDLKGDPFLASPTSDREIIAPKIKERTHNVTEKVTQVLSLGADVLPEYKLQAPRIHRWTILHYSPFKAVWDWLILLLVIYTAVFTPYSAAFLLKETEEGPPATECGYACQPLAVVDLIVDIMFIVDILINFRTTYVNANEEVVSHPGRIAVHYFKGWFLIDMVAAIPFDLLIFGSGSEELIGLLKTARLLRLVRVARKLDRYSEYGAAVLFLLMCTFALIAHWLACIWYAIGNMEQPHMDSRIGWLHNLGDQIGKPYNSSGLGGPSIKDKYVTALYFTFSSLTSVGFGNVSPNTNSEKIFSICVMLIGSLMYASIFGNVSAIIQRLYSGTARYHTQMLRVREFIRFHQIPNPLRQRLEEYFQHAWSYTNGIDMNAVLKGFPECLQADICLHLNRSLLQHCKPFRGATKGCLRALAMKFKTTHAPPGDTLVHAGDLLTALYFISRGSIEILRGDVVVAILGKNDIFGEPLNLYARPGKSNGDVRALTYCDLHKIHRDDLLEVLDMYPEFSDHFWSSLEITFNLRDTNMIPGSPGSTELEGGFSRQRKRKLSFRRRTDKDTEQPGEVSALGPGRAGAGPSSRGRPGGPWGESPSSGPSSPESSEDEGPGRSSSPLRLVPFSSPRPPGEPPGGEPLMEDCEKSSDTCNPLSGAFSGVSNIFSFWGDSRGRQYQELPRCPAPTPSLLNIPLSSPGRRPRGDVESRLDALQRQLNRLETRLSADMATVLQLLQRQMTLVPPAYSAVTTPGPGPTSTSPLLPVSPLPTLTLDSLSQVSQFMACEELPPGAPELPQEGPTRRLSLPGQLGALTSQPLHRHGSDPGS

| Compound | hERG current change (%, negative = inhibition) at 10uM [%] |
| --- | --- |
| CCCN(CCC)c1ccc(/C=N/NC(=O)CN2CCOCC2)cc1 | -38.2 |
| CCCC(c1nnnn1C(C)(C)C)N1CCN(Cc2ccccc2)CC1.Cl (stereo not shown) | -18.5 |
| CCOC(=O)C1CCCN(CCC(=O)Nc2cccc(Cl)c2C)C1.Cl (stereo not shown) | -12.8 |
| O=S1(=O)N=C(N(Cc2cccs2)c2ccc(O)cc2)c2ccccc21 | -39.1 |
| CC(C)(C)CC(C)(C)NCC(O)COCCOc1ccc(Br)cc1.Cl (stereo not shown) | -32.8 |
| COc1ccc(/C=C/C(=O)OCC(=O)c2ccc3c(c2)NC(=O)CO3)cc1 | 24.7 |
| O=C(CSCCc1ccccn1)Nc1ccc(Br)cn1 | -4.13 |
| O=C(C1CCCN(S(=O)(=O)c2cnc[nH]2)C1)N(CCc1ccccc1)Cc1ccccc1 (stereo not shown) | -17.3 |
| CC1CCCN(C(=O)Cn2nnc(-c3ccc(N(C)C)cc3)n2)C1 (stereo not shown) | 12.1 |
| COc1ccccc1Nc1nc(N)nc(CSc2nccc(C)n2)n1 | -0.726 |
| C(#Cc1ccccc1)CN1CCOCC1.Cl | 22.9 |
| CCOC(=O)CC(NC(=O)Cn1nnc(-c2ccccc2Cl)n1)c1ccc(OC)cc1 (stereo not shown) | -0.135 |
| CO.COC(=O)/C=C/c1c(C)[nH]c(=O)[nH]c1=O | 7.87 |
| O=C(CN1C(=O)NC2(CCCC2)C1=O)OCCOc1ccccc1 | 5.02 |
| CC1CN(S(=O)(=O)c2ccccc2)CN1C(=O)N1CCOCC1 (stereo not shown) | 14.3 |
| COC(=O)c1ccc(-c2nn(C)c(=O)c3ccccc23)cc1 | -11.3 |
| COc1cccc(CNC(=O)C2CCCN(c3ncnc4c3nc3n4CCCCC3)C2)c1 (stereo not shown) | -55.6 |
| CCCNC(=O)NC(=O)COc1ccc(-c2ccc(C#N)cc2)cc1 | 7.8 |
| CC1(C)CC(=O)c2cc(OCC(=O)NCc3cccnc3)ccc2O1 | -12.9 |
| Cc1cc(C)cc(Oc2ccccc2/C=C\C(=O)O)c1 | 5.61 |
| O=C1C(=O)N(CCN2CCOCC2)C(c2cccc(Cl)c2)/C1=C(/O)c1ccc2c(c1)OCO2 (stereo not shown) | 17.9 |
| CCOc1cc(CNCCc2c[nH]c3ccccc23)cc(Cl)c1OCC(N)=O.Cl | -46.4 |
| O=C(c1cccc(Br)c1)N1CCCc2ccccc21 | -0.718 |
| O=C(NCc1ccccc1)C1(C(F)(F)F)C/C(=C\CCO)CCCO1 (stereo not shown) | 11.9 |
| O=C(Nc1nc(-c2ccccc2)cs1)C1CCCN(S(=O)(=O)c2cccc([N+](=O)[O-])c2)C1 (stereo not shown) | 12.6 |
